The record followed here is publication PMC7511005.

The chains behind the UniProt entries cited, without tags or fusion partners.
UniProt Q9UNF0: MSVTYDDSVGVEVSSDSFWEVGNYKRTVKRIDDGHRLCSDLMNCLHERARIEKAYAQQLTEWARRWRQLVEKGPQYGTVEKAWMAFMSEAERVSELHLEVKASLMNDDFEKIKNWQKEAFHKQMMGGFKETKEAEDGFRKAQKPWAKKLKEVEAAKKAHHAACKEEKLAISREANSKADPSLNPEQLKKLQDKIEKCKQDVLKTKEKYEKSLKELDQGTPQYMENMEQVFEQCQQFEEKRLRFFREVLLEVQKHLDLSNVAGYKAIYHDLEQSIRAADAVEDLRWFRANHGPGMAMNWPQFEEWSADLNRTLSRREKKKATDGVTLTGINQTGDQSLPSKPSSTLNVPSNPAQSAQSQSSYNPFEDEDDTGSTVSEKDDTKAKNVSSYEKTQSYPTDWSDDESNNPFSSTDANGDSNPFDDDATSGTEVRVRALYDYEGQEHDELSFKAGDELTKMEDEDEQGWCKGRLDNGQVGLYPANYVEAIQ
UniProt Q8N3F8: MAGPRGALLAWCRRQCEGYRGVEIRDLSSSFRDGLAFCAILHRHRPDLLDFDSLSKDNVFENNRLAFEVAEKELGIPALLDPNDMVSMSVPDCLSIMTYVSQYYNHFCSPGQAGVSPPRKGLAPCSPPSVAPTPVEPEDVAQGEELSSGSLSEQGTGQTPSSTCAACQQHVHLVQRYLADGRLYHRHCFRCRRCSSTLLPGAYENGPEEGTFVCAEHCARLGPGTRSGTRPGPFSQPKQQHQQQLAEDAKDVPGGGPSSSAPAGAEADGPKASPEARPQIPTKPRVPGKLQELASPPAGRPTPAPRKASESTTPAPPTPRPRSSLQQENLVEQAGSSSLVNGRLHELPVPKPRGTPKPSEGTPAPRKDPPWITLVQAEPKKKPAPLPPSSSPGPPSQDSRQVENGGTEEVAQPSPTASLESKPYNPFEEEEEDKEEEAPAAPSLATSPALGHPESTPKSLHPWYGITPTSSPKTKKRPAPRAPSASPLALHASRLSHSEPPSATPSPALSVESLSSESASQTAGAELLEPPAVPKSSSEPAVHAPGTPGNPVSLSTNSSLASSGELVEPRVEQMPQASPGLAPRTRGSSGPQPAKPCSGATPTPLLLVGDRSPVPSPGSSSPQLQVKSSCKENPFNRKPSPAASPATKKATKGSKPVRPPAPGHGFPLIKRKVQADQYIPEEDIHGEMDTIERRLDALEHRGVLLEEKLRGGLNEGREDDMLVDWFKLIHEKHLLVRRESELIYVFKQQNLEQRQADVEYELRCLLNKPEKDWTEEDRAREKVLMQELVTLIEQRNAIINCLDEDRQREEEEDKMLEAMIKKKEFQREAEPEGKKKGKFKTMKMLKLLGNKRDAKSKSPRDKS

What all share (assay): two-hybrid; AH109 yeast co-transformed with pGADT7 and pGBKT7 fusions; growth on -His plates, 30°C, 72 h
Assay [1] addresses Syndapin2, yeast two-hybrid fusion (UniProt Q9UNF0).
Assay [2] deals with T1, EHD1, yeast two-hybrid fusion (UniProt Q9H4M9).
T1 sequence: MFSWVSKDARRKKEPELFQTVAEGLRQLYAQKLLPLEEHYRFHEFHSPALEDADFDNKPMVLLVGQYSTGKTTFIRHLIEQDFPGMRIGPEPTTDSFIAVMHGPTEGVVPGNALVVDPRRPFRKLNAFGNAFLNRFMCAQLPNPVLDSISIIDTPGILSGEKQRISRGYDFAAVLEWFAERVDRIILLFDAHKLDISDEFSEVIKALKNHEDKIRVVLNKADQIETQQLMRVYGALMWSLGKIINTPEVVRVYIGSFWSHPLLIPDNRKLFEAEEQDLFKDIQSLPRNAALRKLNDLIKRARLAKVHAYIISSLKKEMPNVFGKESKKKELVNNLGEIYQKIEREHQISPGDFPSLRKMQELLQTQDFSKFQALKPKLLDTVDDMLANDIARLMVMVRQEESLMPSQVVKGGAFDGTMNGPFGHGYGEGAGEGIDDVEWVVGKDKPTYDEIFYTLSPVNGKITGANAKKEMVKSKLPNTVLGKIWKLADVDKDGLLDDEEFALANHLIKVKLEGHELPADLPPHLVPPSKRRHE

For assay [3], the target named is MICAL-L1, yeast two-hybrid fusion (UniProt Q8N3F8).
The target in assay [4] is T2, EHD3, yeast two-hybrid fusion (UniProt Q9NZN3).
T2 sequence: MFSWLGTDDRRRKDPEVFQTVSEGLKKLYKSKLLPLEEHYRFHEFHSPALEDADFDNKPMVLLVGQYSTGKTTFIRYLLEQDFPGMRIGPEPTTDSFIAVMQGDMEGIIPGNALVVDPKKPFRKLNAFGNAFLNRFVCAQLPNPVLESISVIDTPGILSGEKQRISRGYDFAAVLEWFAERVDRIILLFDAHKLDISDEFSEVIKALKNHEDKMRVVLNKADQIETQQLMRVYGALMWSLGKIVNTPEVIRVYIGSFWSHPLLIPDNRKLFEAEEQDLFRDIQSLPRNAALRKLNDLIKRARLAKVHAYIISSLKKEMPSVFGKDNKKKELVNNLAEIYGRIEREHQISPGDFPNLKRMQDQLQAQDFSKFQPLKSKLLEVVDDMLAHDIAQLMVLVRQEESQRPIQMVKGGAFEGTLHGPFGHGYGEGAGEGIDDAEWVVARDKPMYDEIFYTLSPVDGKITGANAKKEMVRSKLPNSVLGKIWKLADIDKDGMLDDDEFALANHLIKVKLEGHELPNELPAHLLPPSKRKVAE

Assay [5] has as its target T3, EHD3Δcc (full-length EHD3 with a valine to proline substitution at residue 203), yeast two-hybrid fusion (UniProt Q9NZN3).
T3 sequence: T2 sequence with V203P

Assay [6] concerns the target EHD4, yeast two-hybrid fusion (UniProt Q9H223).
Assay [7] has as its target T4, EHD1 aa1-309, yeast two-hybrid fusion (UniProt Q9H4M9).
T4 sequence: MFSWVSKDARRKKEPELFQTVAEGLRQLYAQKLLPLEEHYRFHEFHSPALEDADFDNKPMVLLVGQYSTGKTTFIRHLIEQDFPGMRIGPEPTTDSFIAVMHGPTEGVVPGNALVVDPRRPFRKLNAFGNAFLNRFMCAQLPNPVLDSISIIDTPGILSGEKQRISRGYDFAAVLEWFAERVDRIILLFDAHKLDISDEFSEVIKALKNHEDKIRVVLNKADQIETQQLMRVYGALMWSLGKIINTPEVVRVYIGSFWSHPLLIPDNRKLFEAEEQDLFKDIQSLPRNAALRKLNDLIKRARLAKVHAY

Assay [8] has as its target T5, EHD1 aa1-199, yeast two-hybrid fusion (UniProt Q9H4M9).
T5 sequence: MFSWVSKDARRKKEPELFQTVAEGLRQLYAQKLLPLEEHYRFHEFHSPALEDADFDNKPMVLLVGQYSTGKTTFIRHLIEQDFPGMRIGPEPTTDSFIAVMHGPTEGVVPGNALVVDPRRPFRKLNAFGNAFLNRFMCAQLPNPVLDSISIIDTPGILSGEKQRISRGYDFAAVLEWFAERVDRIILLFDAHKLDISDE

Positions count from the first letter of the chain named. No constants are given. Whether binding was seen depends on the method and setting. Some binding calls cover weakened binding; strength is not graded here. Tags and fused reporters may be left off the sequences shown.

B1: EHD4, yeast two-hybrid fusion (protein, UniProt Q9H223 1-541)
chain: MFSWMGRQAGGRERAGGADAVQTVTGGLRSLYLRKVLPLEEAYRFHEFHSPALEDADFENKPMILLVGQYSTGKTTFIRYLLEQDFPGMRIGPEPTTDSFIAVMYGETEGSTPGNALVVDPKKPFRKLSRFGNAFLNRFMCSQLPNQVLKSISVIDSPGILSGEKQRISRGYDFCQVLQWFAERVDRIILLFDAHKLDISDEFSEAIKAFRGQDDKIRVVLNKADQVDTQQLMRVYGALMWSLGKVINTPEVLRVYIGSFWAQPLQNTDNRRLFEAEAQDLFRDIQSLPQKAAVRKLNDLIKRARLAKVHAYIISYLKKEMPSVFGKENKKRELISRLPEIYIQLQREYQISAGDFPEVKAMQEQLENYDFTKFHSLKPKLIEAVDNMLSNKISPLMNLISQEETSTPTQLVQGGAFDGTTEGPFNQGYGEGAKEGADEEEWVVAKDKPVYDELFYTLSPINGKISGVNAKKEMVTSKLPNSVLGKIWKLADCDCDGMLDEEEFALAKHLIKIKLDGYELPSSLPPHLVPPSHRKSLPKAD
For B1, the binding result in assay [1] is recorded as “binds”; in assay [2] it was “binds”; in assay [3], “no binding”; in assay [4], “binds”; in assay [5] it was “no binding”; in assay [6], “binds weakly”. The binding result in assay [7] and in assay [8] was “no binding” in each case.
